# Experimental data: the supplement of paper PMC11417369
# This is one part of the list.
# Tested on: PfAP2-HC AP2 domain (GST-tagged)
# Assay: gcPBM binding intensity (ln(normalized median fluorescence intensity)); higher = stronger DNA binding
# In short: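 GST-fused DNA-binding domains of P. falciparum, expressed in E. coli, were applied at about 25 μg on average for 1 h to an Agilent 4 × 180k array of primer-extended double-stranded 36-bp intergenic genomic probes and negative controls. Binding intensity is the highest Masliner-normalised natural-log median intensity across replicate spots of either probe orientation, measured with Alexa488 anti-GST antibody and a 488 nm scan.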
row,Sequence,gcPBM binding intensity (ln)
1,ATTTCTATATATTGTGCATGCCATTACACCAAATAT [TGCATGCA_site813],9.82
2,AGAATTTAGAAACAATGTTGTATATGTAATACCTTT [XGTACX_negctrl_site149],9.61
3,GATATTATGTGTTTGGTATTTCGATCTTGTCAGGAC [CACACA_negctrl_site426],9.65
4,TATATATATAAAAAAAGTACGTATTTAATAAAAATA [XGTACX_site4992],9.88
5,TCATTTTACAGATGTGCATGTGAATCAATCTATTTA [TGCATGCA_site787],9.56
6,AATATACAAATTACAAGTACAAATCAATATTATATG [XGTACX_site7521],9.73
7,AAAAAAAAAAAAAAAACACACAAACAAATGAATAAA [CACACA_site5769],9.93
8,GTATATAATTTATATTGTACGCATATTATTATCATT [XGTACX_site7277],9.77
9,TGTAGTTTTTATTTATGTACGCATAACATAATTTAA [XGTACX_site104],9.76
10,TATATATATAAATACACACACACATATATATATATA [CACACA_site4585],10.3
11,ATCATACCTTTTAATGTACACACATTTCTTTTTTGT [CACACA_site8198],10.4
12,TATATAAATAAAAAAAGTACATTACTTTTTAATTTA [XGTACX_site285],9.44
13,TAGTATGATAACTTGGGTACATAAATATGGAGTATC [XGTACX_site1296],9.72
14,TTTTTAATTCAAAAAACTGTATGTTATATGTCAAAT [CACACA_negctrl_site72],9.3
15,TTCATTTTATTTTAAGTGCATATTTTTATTTTTTTG,9.66
16,AGAAAGGATATTATATGTACATATCTTTGTATTTTT [XGTACX_site5040],9.97
17,CATACCCATAAACACACACACATATATACCTATATA [CACACA_site4745],10.2
18,TGACAACATAGAGGGGCACACACATATATACATAAA [CACACA_site8550],10.3
19,TAAAAGTATATATATACACACATAAATATATCTGTA [CACACA_site4537],9.91
20,ATTTTTTTACAAAAATGTACACATGAAATATGTAAT [XGTACX_site1372],9.47
21,TATTATTTTAGAATGCGTACTTATAAAATATTTTAT [XGTACX_site867],9.54
22,GTGGAATAATATATATGTACATATTTAAAATATTTA [XGTACX_site3499],9.62
23,AATGGTCTTTTCAACACACGTACATAAAAATATTAT [CACACA_site2571],9.74

row,Sequence,gcPBM binding intensity (ln)
1,GTGTGATGGTCCAATATACACACTTAAAAAAAAAAA [CACACA_site2426],9.5
2,TACTGTTATAAATGTGGTACTAATATTATACATATA [XGTACX_site5116],9.59
3,TTAAATTATTAGAGAGTGCATTATATATATTATACA [GTGCAC_site9711],9.29
4,TCTTTAATGATGTGTACACAAGAAAACATTGTTAAG [CACACA_site5299],9.67
5,TAGAAGCATCATTTTACACACATGCAAATGTAAAAT [CACACA_site1893],9.74
6,AAAAATAAGAGCGTAGCACACACGCATTTTATAAAT [CACACA_site8147],9.81
7,ACATAAGAATTTTTATGTACTCATAATATTTTATAT [XGTACX_site2398],9.62
8,GAAATATTTGTAAAAACATGCATGGTACTTTTAAAA [TGCATGCA_site6],9.75
9,TACATACTAAAAAAATGTACTTGTATTGTTTTTTTA [XGTACX_site8357],9.51
10,TATATATATATATACACATGCAAAAATTTTTAATTT [TGCATGCA_site82],9.82
11,TTTCTATATGGATTTGCACACATAAAAATGCTTATA [CACACA_site8751],9.77
12,TTATTTAACGTATTCTCACACATATATATATATAAT [CACACA_site5226],9.84
13,ATATATATATATATATGTACATATGTTAGGATCAAA [XGTACX_site8626],9.9
14,ATGACATATAAATATACACACATACGTAAGTATATT [CACACA_site5058],9.79
15,TTATTGAACTTTTATAAAACCTGTATTATTATCTCT [CACACA_negctrl_site767],9.71
16,TTATATTAATAATAAAGTACAAAAAATCATATATAA [XGTACX_site799],9.67
17,TATTTCTTATTACATACACACATATACATATATGAC [CACACA_site3201],9.83
18,TCCAGGCTACACTCTAGTACTCGTAGGGTTATGAGA [XGTACX_site4945],9.44
19,ATATAATAACATAACACACACATGTATTTATAGGTG [CACACA_site359],10.4
20,ACATTATAATATTATTGTACTATATATATAATATAT [XGTACX_site2291],9.9
21,AAAAAAAAAAAAAAAACACACATATATATATAATAT [CACACA_site1159],9.75
22,GATAATCAGAATGGGGTGCAAAGAAAAAAAAAAAAA,9.55
23,TTATATTTATATTTATGTACATATTTTGTGTGAAAA [XGTACX_site2367],9.74

row,Sequence,gcPBM binding intensity (ln)
1,CCTAAATAATATCTATCACACACGCATATATACATA [CACACA_site8838],9.96
2,TCTATTTATATGTATTGTACAATATAGATGTGTATT [XGTACX_site5646],9.88
3,GTAATACACAGACACACACACATACACATATTTATA [CACACA_site7313],10.5
4,AAATTAAAAATAATTACACACATAGAAAAATTATAT [CACACA_site2275],9.91
5,TTCTATATATAATATTGTACTTAATTATTTTATTTT [XGTACX_site2701],9.83
6,AGTGTATATAGAAACATACACACATATTAATTTTAC [CACACA_site3127],9.78
7,ATATATATGCATTCAAGTACAAAAATATATGTTAAA [XGTACX_site910],9.72
8,TAGCTGTTCAAAAAATGTACATATATAATATATATA [XGTACX_site5842],9.45
9,TACACAAACGTTATACGTACACAGGTTTTTCTTTTA [XGTACX_site5427],9.64
10,ATAATAAGAAAAAAAAAAAAAAAAAAAAAAAAAAAA [TGCATGCA_negctrl_site377],8.9
11,ATATTGAAATGTTAATAGAAATATATGGTTAAATTG [XGTACX_negctrl_site212],9.66
12,ATGTATATAAATAGGTGTACATATAAGGTGTTAAGC [XGTACX_site5465],10
13,ATTTTATTTTATTAAGTGCAAAAAAAAAAAAAGAAA,9.47
14,ACCTCTCATATGTTATAAACAAAATGAAAATTTCAT [XGTACX_negctrl_site303],9.55
15,TGTACAATATAAGGAGCACACAAAAATGGATAAATA [CACACA_site8216],10.2
16,ATATGGCATAAAACATGTACATGTTCATAAATATAT [XGTACX_site1924],9.8
17,AGAATTAAAATAATACGTACACACATGTATAATACA [XGTACX_site1878],10.3
18,ATTATATCTATAATATGTACATATTATAATATATAT [XGTACX_site3211],9.54
19,AATTGTTAATGGTACGAACACACATATAAAGATGCA [CACACA_site2043],9.93
20,TATATATAAGAAAAAAGTACAGATATATATATATTC [XGTACX_site4788],9.86
21,TATACAGACAGACACACACACATATATATATATATA [CACACA_site1734],10.2
22,TTTTAAGAAAAAAAATGTACACATGAAAATAGTGAA [XGTACX_site5898],9.5
23,AAATTTTCACTTCAAAAACACACGTATTTTTTTCCT [CACACA_site3813],9.69

row,Sequence,gcPBM binding intensity (ln)
1,TGTTATATTATAACTACACACGTATTATGTTATATC [CACACA_site839],9.86
2,GCTAGTTCATAAAATTGTACAAAAAAAAAAAAAAAA [XGTACX_site2223],9.07
3,TTTTTTATCTAATATTTTATAATTTTCATAAATTTG [GTGCAC_negctrl_site534],9.48
4,AAAAAAAAAAAAAAAAGTACATGCCATATATTTTCA [XGTACX_site4580],9.45
5,AAATAATCTATACACAACGTATAAGAATAATATATG [TGCATGCA_negctrl_site422],9.82
6,AATAGAAACATTTTACATGTATATATAATTTTTTTT [XGTACX_negctrl_site190],9.64
7,TAAATAATGTTAAACACACATACCGATATATAATTA [CACACA_site2711],9.79
8,AAAAAAAAGTTGTAAGTGCATGTATATAATAATATT,9.75
9,TGATCACATAATAAATGTACAAAAAAAAATTAATAA [XGTACX_site5867],9.54
10,TTCTTTAAAATGATATACGTTATAAATATATATATA [XGTACX_negctrl_site256],9.44
11,AGAACTTAATGCTGCACACAAAAAAAAGGAAAAATA [CACACA_site1353],9.98
12,TTTAGATAATTCATTACACACATGTATATATATATA [CACACA_site3483],9.84
13,TAAGGAAGAAGAAAAAGTACTAAAGGTATAAATGCG [XGTACX_site2628],9.66
14,GCAACCTTGTGCAAATGTACAAAAAAAAAAAAAAAA [XGTACX_site679],9.4
15,TTTTTGTTATTTTTAGTGCAGAAGAATAAATTTTAA,9.28
16,AAAATTTCTTATTTTGTACACACAATAAATATTCAC [CACACA_site8464],9.8
17,TTTTTATTGTTGCTATATTTATAACAATTTATCATA [GTGCAC_negctrl_site75],9.56
18,AAAAAAAAAATATATTGTACAATATTGTAGCTATAT [XGTACX_site7180],9.7
19,TTCAATAGTAAGTATACACACATATAAATAAATAAA [CACACA_site7295],9.86
20,TATATATATGGACACACACACATATATATATATTTT [CACACA_site5409],10.3
